# Results from the supplement of paper PMC8728848.
# This is one part of the list.
# B1: Microvirin-2 (Microcystis aeruginosa) (protein)
# chain: MPNFSHTCSSINYDPDSTILSAECQARDGEWLPTELRLSDHIGNIDGELQFGDQNFQETCQDCHLEFGDGEQSVWLVCTCQTMDGEWKSTQILLDSQIDNNDSQLEIGGSMPNFSHTCSSINYDPDSTILSAECQARDGEWLPTELRLSDHIGNIDGELQFGDQNFQETCQDCHLEFGDGEQSVWLVCTCQTMDGEWKSTQILLDSQIDNNDSQLEIG
# Experiments:
# Test in all cases: glycan array binding signal (z-score within array); higher = stronger binding
# Conditions in all cases: glycan notation: IUPAC condensed, linker removed
# Fuc(a1-2)Gal = biological target: Fuc(a1-2)Gal
# Outline: (§1)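 Glycan array data came from 3228 arrays in the Consortium for Functional Glycomics database, and only arrays with an available protein sequence were kept. Glycan names were put into IUPAC-condensed notation, and columns mapping to the same glycan were averaged. The binding signal is a within-array Z-score, averaged across arrays of one protein sequence run at different concentrations or buffers and across linkers. A negative Z-score can be read as non-binding.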
# Fuc(a1-2)Gal(b1-3)GalNAc = biological target: Fuc(a1-2)Gal(b1-3)GalNAc
# Outline: as §1
# [1] = biological target: Fuc(a1-2)Gal(b1-3)GalNAc(a1-3)[Fuc(a1-2)]Gal(b1-4)Glc
# Outline: as §1
# [2] = biological target: Fuc(a1-2)Gal(b1-3)GalNAc(a1-3)[Fuc(a1-2)]Gal(b1-4)GlcNAc
# Outline: as §1
# [3] = biological target: Fuc(a1-2)Gal(b1-3)GalNAc(b1-3)Gal
# Outline: as §1
# [4] = biological target: Fuc(a1-2)Gal(b1-3)GalNAc(b1-3)Gal(a1-4)Gal(b1-4)Glc
# Outline: as §1
# [5] = biological target: Fuc(a1-2)Gal(b1-3)GalNAc(b1-4)[Neu5Ac(a2-3)]Gal(b1-4)Glc
# Outline: as §1
# Fuc(a1-2)Gal(b1-3)GlcNAc = biological target: Fuc(a1-2)Gal(b1-3)GlcNAc
# Outline: as §1
# [6] = biological target: Fuc(a1-2)Gal(b1-3)GlcNAc(b1-2)Man(a1-3)[Fuc(a1-2)Gal(b1-3)GlcNAc(b1-2)Man(a1-6)]Man(b1-4)GlcNAc(b1-4)GlcNAc
# Outline: as §1
# [7] = biological target: Fuc(a1-2)Gal(b1-3)GlcNAc(b1-2)Man(a1-3)[Fuc(a1-2)Gal(b1-3)GlcNAc(b1-2)Man(a1-6)]Man(b1-4)GlcNAc(b1-4)[Fuc(a1-6)]GlcNAc
# Outline: as §1
# [8] = biological target: Fuc(a1-2)Gal(b1-3)GlcNAc(b1-3)Gal(b1-4)Glc
# Outline: as §1
# [9] = biological target: Fuc(a1-2)Gal(b1-3)GlcNAc(b1-3)GalNAc
# Outline: as §1
# [10] = biological target: Fuc(a1-2)Gal(b1-3)GlcNAc(b1-3)[Fuc(a1-2)Gal(b1-3)GlcNAc(b1-6)]GalNAc
# Outline: as §1
# [11] = biological target: Fuc(a1-2)Gal(b1-3)GlcNAc(b1-3)[Gal(b1-4)GlcNAc(b1-6)]Gal(b1-4)Glc
# Outline: as §1
# [12] = biological target: Fuc(a1-2)Gal(b1-3)GlcNAc(b1-3)[Neu5Ac(a2-6)Gal(b1-4)GlcNAc(b1-6)]Gal(b1-4)Glc
# Outline: as §1
# [13] = biological target: Fuc(a1-2)Gal(b1-3)GlcNAc6S
# Outline: as §1
# [14] = biological target: Fuc(a1-2)Gal(b1-3)[Fuc(a1-4)]GlcNAc
# Outline: as §1
# [15] = biological target: Fuc(a1-2)Gal(b1-3)[Fuc(a1-4)]GlcNAc(b1-2)Man(a1-3)[Fuc(a1-2)Gal(b1-3)[Fuc(a1-4)]GlcNAc(b1-2)Man(a1-3)]Man(b1-4)GlcNAc(b1-4)GlcNAc
# Outline: as §1
# [16] = biological target: Fuc(a1-2)Gal(b1-3)[Fuc(a1-4)]GlcNAc(b1-2)Man(a1-3)[Fuc(a1-2)Gal(b1-3)[Fuc(a1-4)]GlcNAc(b1-2)Man(a1-6)]Man(b1-4)GlcNAc(b1-4)[Fuc(a1-6)]GlcNAc(b1-4)[Fuc(a1-6)]GlcNAc
# Outline: as §1
# [17] = biological target: Fuc(a1-2)Gal(b1-3)[Fuc(a1-4)]GlcNAc(b1-3)[Fuc(a1-3)[Gal(b1-4)]GlcNAc(b1-6)]Gal(b1-4)Glc
# Outline: as §1
# [18] = biological target: Fuc(a1-2)Gal(b1-3)[Fuc(a1-4)]GlcNAc(b1-3)[Gal(b1-4)GlcNAc(b1-6)]Gal(b1-4)Glc
# Outline: as §1
# [19] = biological target: Fuc(a1-2)Gal(b1-4)Fuc(a1-3)]GlcNAc(b1-2)Man(a1-3)[Fuc(a1-2)Gal(b1-4)[Fuc(a1-3)]GlcNAc(b1-2)Man(a1-6)]Man(b1-4)GlcNAc(b1-4)GlcNAc
# Outline: as §1
# Fuc(a1-2)Gal(b1-4)Glc = biological target: Fuc(a1-2)Gal(b1-4)Glc
# Outline: as §1
# Fuc(a1-2)Gal(b1-4)Glc6S = biological target: Fuc(a1-2)Gal(b1-4)Glc6S
# Outline: as §1
# Fuc(a1-2)Gal(b1-4)GlcNAc = biological target: Fuc(a1-2)Gal(b1-4)GlcNAc
# Outline: as §1
# [20] = biological target: Fuc(a1-2)Gal(b1-4)GlcNAc(b1-2)Man
# Outline: as §1
# [21] = biological target: Fuc(a1-2)Gal(b1-4)GlcNAc(b1-2)Man(a1-3)[Fuc(a1-2)Gal(b1-4)GlcNAc(b1-2)Man(a1-6)]Man(b1-4)GlcNAc(b1-4)GlcNAc
# Outline: as §1
# [22] = biological target: Fuc(a1-2)Gal(b1-4)GlcNAc(b1-2)Man(a1-3)[Fuc(a1-2)Gal(b1-4)GlcNAc(b1-2)Man(a1-6)]Man(b1-4)GlcNAc(b1-4)[Fuc(a1-6)]GlcNAc
# Outline: as §1
# [23] = biological target: Fuc(a1-2)Gal(b1-4)GlcNAc(b1-2)[Fuc(a1-2)Gal(b1-4)GlcNAc(b1-4)]Man(a1-3)[Fuc(a1-2)Gal(b1-4)GlcNAc(b1-2)Man(a1-6)]Man(b1-4)GlcNAc(b1-4)GlcNAc
# Outline: as §1
# [24] = biological target: Fuc(a1-2)Gal(b1-4)GlcNAc(b1-3)Gal(b1-4)GlcNAc
# Outline: as §1
binder,measurement,setting,value
B1,glycan array binding signal (z-score),Fuc(a1-2)Gal,-0.143
same,glycan array binding signal (z-score),Fuc(a1-2)Gal(b1-3)GalNAc,-0.137
same,glycan array binding signal (z-score),[1],-0.141
same,glycan array binding signal (z-score),[2],-0.135
same,glycan array binding signal (z-score),[3],-0.005
same,glycan array binding signal (z-score),[4],-0.136
same,glycan array binding signal (z-score),[5],-0.133
same,glycan array binding signal (z-score),Fuc(a1-2)Gal(b1-3)GlcNAc,-0.139
same,glycan array binding signal (z-score),[6],0.021
same,glycan array binding signal (z-score),[7],0.239
same,glycan array binding signal (z-score),[8],-0.139
same,glycan array binding signal (z-score),[9],-0.125
same,glycan array binding signal (z-score),[10],-0.099
same,glycan array binding signal (z-score),[11],-0.139
same,glycan array binding signal (z-score),[12],-0.14
same,glycan array binding signal (z-score),[13],-0.093
same,glycan array binding signal (z-score),[14],-0.136
same,glycan array binding signal (z-score),[15],-0.068
same,glycan array binding signal (z-score),[16],-0.061
same,glycan array binding signal (z-score),[17],-0.137
same,glycan array binding signal (z-score),[18],-0.127
same,glycan array binding signal (z-score),[19],-0.106
same,glycan array binding signal (z-score),Fuc(a1-2)Gal(b1-4)Glc,-0.132
same,glycan array binding signal (z-score),Fuc(a1-2)Gal(b1-4)Glc6S,-0.135
same,glycan array binding signal (z-score),Fuc(a1-2)Gal(b1-4)GlcNAc,-0.137
same,glycan array binding signal (z-score),[20],-0.13
same,glycan array binding signal (z-score),[21],-0.084
same,glycan array binding signal (z-score),[22],0.197
same,glycan array binding signal (z-score),[23],-0.032
same,glycan array binding signal (z-score),[24],-0.126
